Data reported in PubChem BioAssay AID651820 (National Center for Advancing Translational Sciences (NCATS), 2012).
Hit rate of the full screen: of about 340,000 compounds, about 12,000 (3.5%) were called active. Inconclusive means that the source gave no clear call. Such entries were picked first, then a sample of the others. Calls follow the shape of the dose curve; as a rule, active = well fitted inhibition curve with a large enough effect; inconclusive = small, poorly fitted or top-dose-only effect, or another doubt; inactive = no such curve, though single readings can be large or run the other way. Potencies of inconclusive entries are left out as doubtful fits.

Experiment: qHTS Assay for Inhibitors of Hepatitis C Virus (HCV)
Settings: Huh7.5.1 HCVcc-Cre (HCVcc is cell-culture hepatitis C virus) infection, luciferase reporter, 44 h; activity change, negative = inhibition: at 41.8 µM (top of the series) unless noted
How it was run: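 Infectious HCVcc-Cre (~0.5 moi) was added to cells just after compound, with cells seeded 4 h earlier at 1,000 per well. Luciferase activity after 44 h culture reported infection; substrate was incubated 15 min at room temperature before reading.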
% is scaled to controls: 0 for no effect and ±100 for the full control effect; potency is read from the fitted curve at half-maximal effect; tags tell the direction and shape of the fitted curve.

Row | Compound | Potency | activity change, negative = inhibition
1 | O=C(C1CC1)N1CCc2cc(Br)cc(S(=O)(=O)NC3CCCCC3)c21 | active: 7.08 µM | –
2 | C/C(=N\NC(=O)C1COc2ccccc2O1)c1ccc(C)o1 (stereo not drawn) | – | inactive: 2.93%
3 | CC[C@]12c3[nH]c4ccc(Cl)cc4c3CCN1C(=O)[C@@H](CC(=O)NC/C=C(\C)CCC=C(C)C)C[C@@H]2C(=O)N1CCN(C(=O)c2ccco2)CC1 | active: 11.2 µM | –
4 | CN1/C(=C\C(=O)Nc2ccc(Cl)cc2)C(C)(C)c2ccccc21 | – | inactive: -23.7%
5 | Cc1ccc(CNC(=O)C(=O)NCC2OCCN2S(=O)(=O)c2ccc(Cl)cc2)cc1 (stereo not drawn) | inconclusive [inhibitor, single point] | –
6 | COCCn1c(C)cc(C(=O)CSc2nc(C)cc(C)c2C#N)c1C | inconclusive [inhibitor, partial curve] | –
7 | O=C(Nc1nnc(SCc2ccc(F)cc2)s1)c1ccc2ncsc2c1 | inconclusive [inhibitor, partial curve] | –
8 | COc1ccc(C(=O)Nc2ccc(OCC(F)(F)C(F)F)c(C(F)(F)F)c2)cc1OC | active: 11.2 µM | –
9 | Cc1sc2nc(SCc3nnc(-c4cccs4)o3)n(C3CCCC3)c(=O)c2c1C | inconclusive [inhibitor, partial curve] | –
10 | COc1cc(NC(=O)C2CCCCN2)ccc1OCC(C)C (stereo not drawn) | inconclusive [inhibitor, partial curve, poor fit] | –
11 | CCc1cccc(C)c1NC(=O)CCCSc1nc2ccccc2s1 | inconclusive [inhibitor, single point] | –
12 | COc1ccc(C(=O)COC(=O)/C=C/c2ccc(S(=O)(=O)Nc3cccc(S(N)(=O)=O)c3)cc2)cc1 | inconclusive [inhibitor, partial curve] | –
13 | CCNCc1cc(OCC)c(OCC(=O)NCCc2ccccc2)cc1Cl | inconclusive [inhibitor, partial curve] | –
14 | Cc1cc(-c2ccc(Cl)cc2)n2nc(C)cc2n1 | inconclusive [inhibitor, partial curve] | –
15 | COc1cc(NS(=O)(=O)c2ccc(NC(=O)Cc3ccccc3)cc2)nc(OC)n1 | – | inactive: 11.6%
16 | O=C(COc1ccccc1)NC1CCN(Cc2ccccc2)CC1 | – | inactive: 7.1%
17 | CCCSc1nnc(Sc2nnnn2-c2ccccc2)s1 | inconclusive [inhibitor, single point] | –
18 | Cc1nc2c(-c3ccccc3)c(C)[nH]n2c(=O)c1Cc1ccccc1 | active: 10 µM | –
19 | Cc1nc(N)[nH]c(=O)c1CCCNc1ccc([N+](=O)[O-])cc1 | – | inactive: -27.5%
20 | CC1CCC(NC(=O)N(CCCl)N=O)CC1 (stereo not drawn) | inconclusive [inhibitor, single point] | –
21 | COc1ccc(-n2c(SCC(=O)Nc3ccccc3C)nc(O)c(Cc3ccccc3)c2=O)cc1 | – | inactive: 8.19%
22 | COc1ccc(-c2nn(-c3ccccc3)cc2C(=O)NC2CC2)cc1 | inconclusive [inhibitor, single point] | –
23 | O=C1C(=O)c2ccccc2-c2ccccc21 | active: 2.82 µM | –

Row | Compound | Potency | activity change, negative = inhibition
24 | COc1ccc(C(=O)Nc2nc3c(s2)CCCC3)cc1S(=O)(=O)N1CCCc2ccccc21 | inconclusive [inhibitor, full curve] | –
25 | COC(=O)C1=C(C)NC(=O)NC1c1ccc(-c2ccc(Cl)cc2)o1 (stereo not drawn) | active: 8.91 µM | –
26 | COc1ccc(/C=N/NC(=O)c2cccc(NC(=O)c3ccc(Cl)cc3)c2)c(OC)c1 | inconclusive [inhibitor, partial curve] | –
27 | COc1ccc(C(=O)NC(=S)Nc2ccc(S(=O)(=O)Nc3cc(OC)nc(OC)n3)cc2)cc1 | – | inactive: 11.2%
28 | N#C/C(=N\Nc1ccc(F)cc1)C(=N)N1CCCCC1 | – | inactive: -18%
29 | O=C(Nc1ccc(O)c(-c2nc3ccccc3o2)c1)C1(c2ccccc2)CCCC1 | inconclusive [inhibitor, partial curve] | –
30 | CC1(C)N=C(/C=N/O)C=[N+]1[O-] | inconclusive [inhibitor, single point] | –
31 | O=C(CNc1ccc(Br)cc1)Nc1cccc(S(=O)(=O)N2CCCC2)c1 | inconclusive [inhibitor, single point] | –
32 | COc1cc(NC(=S)NC(=O)c2ccccc2C)ccc1NC(=O)c1cccs1 | active: 2 µM | –
33 | O=c1c(-c2nnc(SCc3ccc(Cl)cc3Cl)o2)cccn1Cc1ccccc1 | inconclusive [inhibitor, single point] | –
34 | COc1ccc(CCNC(=O)c2cc(S(=O)(=O)N(C)c3ccccc3)ccc2Cl)cc1 | inconclusive [inhibitor, single point] | –
35 | COc1ccc(N=Cc2c(O)[nH]c3ccccc23)cc1 | inconclusive [inhibitor, single point] | –
36 | Cc1c(C#N)c2ccccc2n1CC(=O)O | – | inactive: 20.3%
37 | CCN1CCN(C2=C(NS(=O)(=O)c3ccc(NC(C)=O)cc3)C(=O)c3ccccc3C2=O)CC1 | inconclusive [inhibitor, single point] | –
38 | COc1ccc(Cl)cc1NC(=O)CN(C)S(=O)(=O)c1cccs1 | inconclusive [inhibitor, single point] | –
39 | Cc1cccc(NC(=O)c2ccc(C(=O)Nc3cccc(C)c3)nc2)c1 | inconclusive [inhibitor, partial curve] | –
40 | CN(C)S(=O)(=O)NCc1ccc2c(c1)OCO2 | inconclusive [inhibitor, partial curve] | –
41 | CC1=C(C(=O)OCc2ccccc2)C(c2cccc(F)c2)NC(=O)N1 (stereo not drawn) | inconclusive [inhibitor, single point] | –
42 | c1ccc(-c2nnsc2Sc2ccccn2)cc1 | inconclusive [inhibitor, partial curve] | –
43 | CCOC(=O)c1cc(C#N)c(N2CCN(C)CC2)nc1-c1ccccc1 | inconclusive [inhibitor, partial curve, poor fit] | –
44 | COCCN(CCOC)C(=S)Nc1ccccc1 | active: 1.78 µM | –
45 | COc1ccccc1C(=O)Nc1ncc2c(n1)CC(c1ccco1)CC2=O (stereo not drawn) | inconclusive [inhibitor, single point] | –
46 | CCN1CCN(c2ccc(NC(=O)c3cccc(OCc4ccccc4)c3)cc2)CC1 | active: 4.47 µM | –

Row | Compound | Potency | activity change, negative = inhibition
47 | CC1=CCC(C(=O)O)(C(=O)N/N=C/c2cccs2)C(c2ccc([N+](=O)[O-])cc2)C1 (stereo not drawn) | – | inactive: 14.1%
48 | COc1ccc(C(=O)Nc2ccnn2C2CCN(Cc3ccc4nonc4c3)CC2)cc1 | – | inactive: -29.1%
49 | COc1ccc(N2CCN(S(=O)(=O)c3ccc4c(c3)CC(C)N4C(=O)C3CC3)CC2)cc1 (stereo not drawn) | inconclusive [inhibitor, partial curve] | –
50 | O=C(N/N=C/c1ccc(O)cc1)c1cccc(N/N=C/c2ccc(O)cc2)c1 | inconclusive [inhibitor, single point] | –
51 | CCOC(=O)C1=C(C)N=c2s/c(=C\c3ccc(OC(C)=O)cc3)c(=O)n2C1/C=C/c1ccccc1 (stereo not drawn) | inconclusive [inhibitor, single point] | –
52 | Cc1ccc(N(C(=O)c2snc(C(N)=O)c2N)C(C(=O)NCc2ccccc2)c2ccncc2)c(C)c1 (stereo not drawn) | inconclusive [inhibitor, single point] | –
53 | Cc1cc(C)c(OCC(=O)NCC(C)(C)N2CCOCC2)c(C)c1 | – | inactive: 4.6%
54 | CC1=Nc2ccccc2/C1=C\c1sc(Nc2ccc(C)cc2)nc1O | inconclusive [inhibitor, full curve, poor fit] | –
55 | COc1ccc(-c2noc(N3CCC(C(=O)N4CCN(c5ccccn5)CC4)CC3)n2)cc1 | active: 4.47 µM | –
56 | CC(C)c1ccc(OCc2ccc(C(=O)NN3CCN(C)CC3)o2)cc1 | inconclusive [inhibitor, single point] | –
57 | O=C(Nc1cccn(Cc2c(F)cccc2Cl)c1=O)NC1CCCCC1 | inconclusive [inhibitor, partial curve] | –
58 | COc1ccccc1CNC(=O)C1CC2Cn3c(nc4cc(Cl)c(Cl)cc43)C2N1C (stereo not drawn) | inconclusive [inhibitor, single point] | –
59 | COc1ccc(C)cc1NC(=O)c1cc(S(=O)(=O)N2CCCCC2)ccc1N1CCOCC1 | inconclusive [inhibitor, partial curve] | –
60 | COc1ccccc1-c1nc2c(c(SCC(=O)N3CCCCC3)n1)Cc1c(CO)cnc(C)c1O2 | inconclusive [inhibitor, partial curve] | –
61 | CC(=O)Nc1ccc(C(=O)CSc2nnc(-c3ccccc3F)n2CCc2ccccc2)cc1 | – | inactive: -27.1%
62 | Cc1cc(CNC(=O)c2cccc3c2C(=O)c2ccc(-c4ccc(F)cc4OCc4ccccc4)cc2S3(=O)=O)c(C(F)(F)F)o1 | inconclusive [inhibitor, single point] | –
63 | COc1cc2cc(CN(CCc3cccc(C)c3)C(=S)NCCCN(C)C)c(=O)[nH]c2cc1OC | inconclusive [inhibitor, partial curve] | –
64 | CCOCCCNc1nc2c(C)cccn2c(=O)c1/C=C1\SC(=S)N(C(C)CC)C1=O (stereo not drawn) | – | inconclusive: -71% [inhibitor]
65 | Cc1ccc(C#CC[N+](C)(C)CC#Cc2ccccc2)cc1 | – | inactive: -14.5%
66 | COc1ccc(S(=O)(=O)N2CCCC2CNC(=O)C(=O)Nc2ccc(C)cc2)cc1 (stereo not drawn) | inconclusive [inhibitor, partial curve] | –
67 | C/C(=N\NC(=O)c1nc2ccccn2c1C)c1cccc([N+](=O)[O-])c1 | inconclusive [inhibitor, single point] | –
68 | Clc1cccc(-c2nnc(SC/C=C/c3ccccc3)n2Cc2ccco2)c1 | inconclusive [inhibitor, partial curve] | –
